# Inconclusive results, whose numbers are uncertain, are shown with a selection of clear calls. For part of these data: Potencies of inconclusive entries are left out as doubtful fits. The source made the active and inactive calls. Calls come from the whole dose curve; as a rule, active = well fitted curve in the direction sought with a large enough effect; inconclusive = small, poorly fitted or top-dose-only effect, or another doubt; inactive = no such curve, though single readings can be large; an effect the other way counts as inactive or inconclusive.
# How the values were obtained:
# [1] = Primary qHTS for inhibitors of La Crosse Virus (LACV) - induced cell death in SH-SY5Y cells (AID 1508616)
# Summary of the method: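 Luminescent ATP readout (ATPLite 1step, 5 min room temperature) measured rescue from LACV-induced death after 6 days of infection at 0.01 MOI; normalized to infected DMSO wells and uninfected DMSO wells.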
# [2] = Validation qHTS assay for inhibitors of Activation Induced Cytidine Deaminase (AID): UDG Counterscreen signal (AID 1347427); conditions: biochemical UDG counterscreen, fluorescence signal
# Summary of the method: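 Counterscreen read of UDG activity (2 U/mL, 4/3x) in the FRET deamination format with AID (1 uM, 4/3x), DJC20/DJC23 substrates (250 nM, 4x), 4 h at room temperature. NaOH stop, fluorescence at 560 ex/665 em.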
# [3] = target: Single-stranded DNA cytosine deaminase (Homo sapiens) (UniProt Q9GZX7); assay: Validation qHTS assay for inhibitors of Activation Induced Cytidine Deaminase (AID): AID signal (AID 1347429)
# Chain of UniProt Q9GZX7 (Q9GZX7 whole entry, looked up): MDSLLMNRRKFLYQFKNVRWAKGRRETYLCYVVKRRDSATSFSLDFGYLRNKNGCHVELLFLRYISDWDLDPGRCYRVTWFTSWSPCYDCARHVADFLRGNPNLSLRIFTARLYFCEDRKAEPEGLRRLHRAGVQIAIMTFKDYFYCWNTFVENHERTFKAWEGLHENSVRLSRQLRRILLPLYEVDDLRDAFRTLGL
# Summary of the method: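 AID and UDG were combined and compounds added at final up to 114 uM, then DJC20/DJC23 FRET substrate was added for 4 hr at room temperature. NaOH was then added for 30 min before fluorescence was read at 540/590 nm.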
# Potency is the fitted concentration of half-maximal effect; tags give direction and shape of the fitted curve.
compound,measurement,setting,value
C#C[C@]1(O)CC[C@H]2[C@@H]3CCc4cc(O)ccc4[C@H]3CC[C@@]21C,Potency,[1],"inconclusive [inhibitor, single point]"
CCCCN(CCCC)CCC(O)c1cc2c(Cl)cc(Cl)cc2c2cc(C(F)(F)F)ccc12 (stereo unspecified),Potency,[1],"inconclusive [inhibitor, partial curve, poor fit]"
Nc1ccc(-c2ccc3ccccc3n2)cc1,Potency,[2],"inconclusive [inhibitor, partial curve, poor fit]"
NO,Potency,[2],active: 56.2 µM
COc1cccc(-c2cc(=O)c3ccccc3o2)c1N,Potency,[3],inactive
Cc1ccc(C(=O)Nc2ccc(S(=O)(=O)O)c3cc(S(=O)(=O)O)cc(S(=O)(=O)O)c23)cc1NC(=O)c1cccc(NC(=O)Nc2cccc(C(=O)Nc3cc(C(=O)Nc4ccc(S(=O)(=O)O)c5cc(S(=O)(=O)O)cc(S(=O)(=O)O)c45)ccc3C)c2)c1,Potency,[3],active: 11.2 µM

# Source: PubChem BioAssay (NCATS)
